PubChem BioAssay AID1347417 (National Center for Advancing Translational Sciences (NCATS), 2020)
Out of some 120,000 compounds screened, about 5,300 (4.4%) were called active. Inconclusive means that the source gave no clear call. Such entries were picked first, then a sample of the others. The call rests on the fitted dose curve; in most records, active means well fitted inhibition curve with a large enough effect; inconclusive means small, poorly fitted or top-dose-only effect; inactive means no such curve, though single readings can be large or run the other way. Potencies of inconclusive entries are doubtful fits and often do not repeat. More than one record can exist for a structure, and the calls need not agree.

Assay: qHTS Primary assay for Inhibitors of Plasmodium falciparum Dd2 growth in vitro; further: nearly all actives have a fitted effect of over 65% in size;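 on activity, negative = inhibition: plate controls were DMSO vehicle for no effect and reference drug for full effect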
Conditions: P. falciparum Dd2 growth, SYBR Green, 72 h; activity, negative = inhibition: at 28.9 µM (top of the series) unless noted; series mostly up to 28.9 µM
Summary of the method: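 Readout: SYBR Green fluorescence, 485 nm excitation, 535 nm emission, after ~16 h lysis at 37C. Before that, Dd2-infected red cells (2.5% hematocrit) grew 72 h with compound, 29 uM top final concentration.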
Potency means the concentration at half of the fitted maximal effect; tags describe the fitted curve by direction and shape.

| Structure (SMILES) | Potency | activity, negative = inhibition |
| --- | --- | --- |
| CCC(C)NC(=O)Cn1cccc1-c1nc(-c2ccc(OC)c(F)c2)no1 (centres undefined) | inconclusive: 0.891 µM [inhibitor, partial curve, poor fit] |  |
| O=C1NCCCCCCN(S(=O)(=O)c2cccnc2)[C@H]2C[C@H](c3nc(-c4cccnc4)no3)C[C@@H]12 | active: 2.82 µM |  |
| Cc1ccc(C(=O)NCC(c2ccc3c(c2)OCO3)N2CCN(c3ccc(F)cc3)CC2)cc1 (centres undefined) | active: 12.6 µM |  |
| O=C1CCC2(CCNCC2)CCN1 |  | inactive: 18.3% |
| CCCCCNC(=O)c1ccc2c(c1)ncn2-c1cccc(C)c1 | inconclusive: 10 µM [inhibitor, single point] |  |
| O=C1CCN(Cc2cccnc2)CCCC(C(=O)NCCC2=CCCCC2)CCN1 (centres undefined) | inconclusive: 5.62 µM [inhibitor, partial curve, poor fit] |  |
| Cc1cc(C)c(NC(=O)CCN2C(=O)c3ccccc3Sc3ncccc32)c(C)c1 | inconclusive: 20 µM [inhibitor, single point] |  |
| CCOCC1(C)COc2ccc(C(=O)Nc3cccc(N(C)C)c3)cc2N1 (centres undefined) | active: 3.16 µM |  |
| Cc1ccc(-n2c(=O)c3ccc(C(=O)NCc4ccccc4Cl)cc3n(CC(=O)Nc3cccc(Cl)c3)c2=O)cc1 | inconclusive: 3.98 µM [inhibitor, partial curve, poor fit] |  |
| CCOc1ccc(-c2cc3c(=O)n(CCNC(=O)c4ccccc4OC)ccn3n2)cc1 | inconclusive: 1.58 µM [inhibitor, full curve] |  |
| O=C(c1ccc(Cl)nc1)N1CCC2(C1)C(=O)N(CCc1ccccc1)c1ccccc12 (centres undefined) | active: 12.6 µM |  |
| COC(=O)C1CCN(CC(O)COc2cccc(CN3CC=C(C)CC3)c2)CC1 (centres undefined) |  | inactive: -5.45% |
| CC(C)Oc1cccc2c1c(NC(=O)C1CCN(C)C1)nn2Cc1ccccc1 (centres undefined) | active: 2.24 µM |  |
| COc1ccc(N2CC(c3noc(-c4ccccc4F)n3)CC2=O)cc1OC (centres undefined) |  | inactive: -12.8% |
| COc1cc(OC)c(NC(=O)N2c3ccccc3CC2c2nc(C3CC3)no2)cc1Cl (centres undefined) | inconclusive: 3.16 µM [inhibitor, single point] |  |
| CCc1ccc(NC(=O)Cn2c(-c3ccccc3)nc(C)c(CCO)c2=O)cc1 | inconclusive: 3.98 µM [inhibitor, partial curve, poor fit] |  |
| COc1cc(NC(=O)Cn2c(-c3cccc(Cl)c3)nc(C)c(CCO)c2=O)cc(OC)c1OC | inconclusive: 11.2 µM [inhibitor, single point] |  |
| CCCN(CC1CCOC1)C(=O)Nc1ccc(Br)cc1 (centres undefined) |  | inactive: 2.12% [at 5.79 µM] |
| COC(=O)c1ccc(OCC2c3cc(OC)c(OC)cc3CCN2C(=O)c2ccccc2C)cc1 (centres undefined) | active: 11.2 µM |  |
| Cc1ccc(CCN2CCC3(Cc4ccccc4CN([S+](C)(=O)[O-])C3)C2)cc1 (centres undefined) | inconclusive: 7.94 µM [inhibitor, partial curve] |  |
| O=C1CCN(Cc2ccc(F)cc2F)CCCC(c2nc(-c3cccnc3)no2)CCN1 (centres undefined) | inconclusive: 8.91 µM [inhibitor, partial curve] |  |
| CN1C(=O)CC(C(=O)O)C12CCN(Cc1cccc(C(=O)O)n1)CC2 (centres undefined) | inconclusive: 0.141 µM [inhibitor, full curve, poor fit] |  |

| Structure (SMILES) | Potency | activity, negative = inhibition |
| --- | --- | --- |
| COc1ccccc1CN1CCC(CNS(=O)(=O)c2cc(-c3onc(C)c3C)ccc2OC)CC1 | inconclusive: 17.8 µM [inhibitor, single point] |  |
| N#Cc1nc(-c2ccc(COc3ccccc3)o2)oc1NCc1cccnc1 | inconclusive: 11.2 µM [inhibitor, single point] |  |
| Cc1cccc(Cn2c(=O)n(CC3CCC(C(=O)NC(C)C)CC3)c(=O)c3sccc32)c1 (centres undefined) |  | inactive: -4.67% |
| CCc1ccc(CNC(=O)c2cc3c(N4CCCC4)nc(C)cn3n2)cc1 | inconclusive: 3.98 µM [inhibitor, single point] |  |
| Cc1noc(-c2cccn3c(CNC(=O)c4c[nH]c5ccccc45)nnc23)n1 | inconclusive: 7.08 µM [inhibitor, single point] |  |
| FC(F)(F)c1ccnc(-c2cc(NCc3ccccn3)nc3[nH]ccc23)c1 | inconclusive: 10 µM [inhibitor, single point] |  |
| CN(C)c1ccc(CN2CCOC[C@H]2c2ncc(-c3cccc(Cl)c3)[nH]2)cc1 | inconclusive: 11.2 µM [inhibitor, partial curve, poor fit] |  |
| Cn1c(=O)n(C)c2cc(N3CCOCC3)c(NS(=O)(=O)c3cccc(C#N)c3)cc21 | inconclusive: 11.2 µM [inhibitor, partial curve, poor fit] |  |
| Cc1cccc(-n2c(/C=C/c3cn(C)c4ccccc34)nc3ccccc3c2=O)c1 | inconclusive: 11.2 µM [inhibitor, single point] |  |
| Cc1ccc(CN2CCC(CN(C)C(=O)c3ccc(C4CCCN4)s3)CC2)o1 (centres undefined) | inconclusive: 8.91 µM [inhibitor, single point] |  |
| OC1(CN2CCN(c3cccc(C(F)(F)F)c3)CC2)CNCCOC1 (centres undefined) |  | inactive: -11.2% |
| COc1ccc(-n2c(SCC(=O)NCc3ccc(F)cc3)nc3c([nH]c4ccccc43)c2=O)cc1 | inconclusive: 1.12 µM [inhibitor, single point] |  |
| CNCC(=O)N1CC(COC)C2(CCNCC2)C1 (centres undefined) |  | inactive: 12.9% |
| CCc1n[nH]c(CC2CCN(C(=O)Cc3c[nH]c4ccccc34)CC2)n1 | inconclusive: 12.6 µM [inhibitor, partial curve] |  |
| O=C(c1cnccn1)N1CCC2(CC1)CC(N(Cc1ccc(F)cc1)C1CC1)CCO2 (centres undefined) | inconclusive: 4.47 µM [inhibitor, partial curve] |  |
| COc1ccc(C(=O)NC(C(=O)N2CCCCC2)C2CCN(C(=O)c3ccc(F)cc3)CC2)cc1 (centres undefined) | inconclusive: 3.98 µM [inhibitor, single point] |  |
| O=c1cc(N2CCOCC2)oc2c(-c3ccc(F)cc3)nccc12 | inconclusive: 10 µM [inhibitor, partial curve, poor fit] |  |
| COc1ccc(CN2CCNc3cc(-c4ccnc(C)c4)ncc3C2)cc1O |  | inactive: -4.23% [at 44.1 µM] |
| Cc1cccc(-c2nc3c(cnn3-c3ccccc3)c(=O)n2-c2ccc(Cl)cc2)c1 | inconclusive: 17.8 µM [inhibitor, single point] |  |
| O=C(Cc1cccc(Cl)c1)N1CCC2(CC1)CCN(Cc1cccs1)c1ccccc1O2 | inconclusive: 1.26 µM [inhibitor, full curve, poor fit] |  |
| COc1ccccc1Cc1nc(C2CC(=O)N(c3ccc(F)c(Cl)c3)C2)no1 (centres undefined) |  | inactive: 37.4% |
| Cc1ccc(CN2CCCC(c3nc(C(C)C)no3)CCNC(=O)CC2)s1 (centres undefined) | inconclusive: 17.8 µM [inhibitor, single point] |  |

| Structure (SMILES) | Potency | activity, negative = inhibition |
| --- | --- | --- |
| Cc1nc(C)c(C(=O)N2CC(C)(C)C(C)(O)C2)s1 (centres undefined) |  | inactive: -19.6% |
| COCC1CN(C2CCC2)CC12CCN(C(=O)CC1CCCC1)CC2 (centres undefined) | inconclusive: 10 µM [inhibitor, partial curve, poor fit] |  |
| O=C(Nc1ccc(F)cc1)N1CCC(O)(c2csc(CN3CCN(c4ccccn4)CC3)n2)CC1 | inconclusive: 12.6 µM [inhibitor, single point] |  |
| COc1cccc(C(=O)N2CCC3(CC2)CC(Cc2ccccc2)=NO3)c1 | inconclusive: 14.1 µM [inhibitor, single point] |  |
| Cc1noc(C)c1S(=O)(=O)N1CC(N(Cc2cccnc2)CC(C)C)C1 | inconclusive: 20 µM [inhibitor, single point] |  |
| Cc1cccc(Cn2c(=O)n(-c3ccccc3C)c(=O)c3c2c2cc(C)ccc2n3C)c1 | inconclusive: 10 µM [inhibitor, single point] |  |
| CN(C)C[C@@H]1CN(c2ccccn2)C[C@H]1NC(=O)NC(C)(C)C |  | inactive: -6.23% |
| CCc1cccc(C)c1NS(=O)(=O)c1ccc2c(c1)CC(C)N2C(=O)C1CC1 (centres undefined) | inconclusive: 12.6 µM [inhibitor, single point] |  |
| COc1ccc(-c2cc(-c3ccccc3)nc3c(C)noc23)cc1OC | inconclusive: 31.6 µM [inhibitor, single point] |  |
| O=C(NCc1ccc(N2CCCCC2)cc1)c1cccc2c1CCN2C(=O)C1CC1 | inconclusive: 7.94 µM [inhibitor, partial curve, poor fit] |  |
| O=C(CC1CCCCN(Cc2ccccc2)C1=O)NCc1ccc(F)cc1 (centres undefined) | inconclusive: 17.8 µM [inhibitor, single point] |  |
| COc1ccc(-c2noc(CSc3nc4ccccc4[nH]3)n2)cc1OC | inconclusive: 10 µM [inhibitor, single point] |  |
| Cc1ccc2nc(-c3ccccn3)c(Nc3ccccc3C)n2c1 | active: 8.91 µM |  |
| O=C(NC1CCCc2c1[nH]c1c(Cl)cccc21)c1ccccn1 (centres undefined) | inconclusive: 10 µM [inhibitor, single point] |  |
| COc1cccc(C(=O)N2CCCC3(C2)NC(=O)N(Cc2ccc(C)cc2)C3=O)c1 (centres undefined) | inconclusive: 8.91 µM [inhibitor, single point] |  |
| O=C(C1CCCN(S(=O)(=O)c2cccc3nsnc23)C1)N1CCN(c2cccc(Cl)c2)CC1 (centres undefined) | inconclusive: 10 µM [inhibitor, single point] |  |
| CCN(CC)C(=O)[C@@H](C)C1CC[C@@]2(C)Cc3sc(Nc4c(Cl)cccc4Cl)nc3[C@@H](C)[C@@H]2[C@H]1O (some centres undefined) | active: 12.6 µM |  |
| COc1nccnc1NC1CCN(C(=O)NC2CCCC2)CC1 |  | inactive: 22.5% [at 5.79 µM] |
| O=C(c1ccccc1)N1CCCC(c2noc(COc3ccccc3)n2)C1 (centres undefined) | inconclusive: 11.2 µM [inhibitor, partial curve, poor fit] |  |
| Cc1cc(C)c2oc(-c3cccc(NC(=O)c4ccc(-c5cccc([N+](=O)[O-])c5)o4)c3)nc2c1 | inconclusive: 12.6 µM [inhibitor, single point] |  |
